# Assay results: PubChem BioAssay AID1347073 (National Center for Advancing Translational Sciences (NCATS), 2019)
# The campaign covered roughly 45,000 compounds. About 200 (0.44%) were called active. Not shown: some 7% with an inconclusive outcome. Calls come from the whole dose curve; as a rule, active = well fitted activation curve with a large enough effect; inconclusive = small, poorly fitted or top-dose-only effect; inactive = no such curve, though single readings can be large or run the other way. The list shows a part of the results.
# Test: qHTS of TDP-43 Inhibitors: NCGC Sytravon Library Screen; note: 0% is about no effect; nearly all actives have a fitted effect of over 55% in size
# Conditions: yeast TDP-43 toxicity rescue, BacTiter-Glo growth, 24 h; series mostly up to 46.1 µM; growth rescue (activation): at the top concentration
# Procedure, shortened: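 TDP-43-expressing yeast, pregrown in raffinose, seeded at OD600 0.02 in galactose medium with compound for 24 hr at 30 deg C. Growth read by BacTiter-Glo luminescence, so rescue of toxicity appears as activation.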
row,Compound,growth rescue (activation)
1,COc1ccccc1N(Cc1cc(=O)[nH]c2ccccc12)C(=O)c1ccccc1,inactive: -9.22%
2,CCOC(=O)CCCNC(=O)CSc1nnc(-c2ccccc2)c(-c2ccccc2)n1,inactive: 7.92%
3,OC(COc1ccc(CNCCc2ccccc2F)cc1)CN1CCCCC1 (centres undefined),inactive: -11.4%
4,Cc1ccc(N(CC(=O)NCc2ccco2)C(=O)CCC(=O)Nc2nccs2)cc1C,inactive: 9.59%
5,CC(C)NC(=O)C1CCCN(S(=O)(=O)c2cccc3nonc23)C1 (centres undefined),inactive: 5.26%
6,CCOc1ccc(Oc2c(/C=N/NC(N)=O)c(C)nn2-c2ccccc2)cc1,inactive: 15.8%
7,COC(=O)c1ccc(NC(=S)N2CCN(C)CC2)cc1,inactive: -15.6%
8,COc1ccc(OCc2nnc(SCC(=O)NCC3CCCO3)n2N)cc1 (centres undefined),inactive: -10.6%
9,COc1ccccc1CNC(=O)C1(C)CCN1Cc1ccc2ccccc2c1 (centres undefined),inactive: -0.274%
10,CCCSc1cc(NCCOC(C)=O)c([N+](=O)[O-])c2nonc12,inactive: 10.9%
11,CCOC(=O)C1(Cc2ccccc2C)CCCN(C(=O)CCn2nccc2C)C1 (centres undefined),inactive: -7.23%
12,CN(C)CCCn1c(=O)n(C2CCCCC2)c(=O)c2c3c(sc21)CCCCC3,inactive: 4.01%
13,CCCC(C(=O)NC1CCCC1)N(C(=O)Cn1nnc(-c2ccc(C)o2)n1)c1ccccc1F (centres undefined),inactive: -0.756%
14,CC1(C)Cc2c(C#N)c(NCCN3CCOCC3)nc(-c3ccccc3)c2CO1,inactive: 15.2%
15,Cc1ccc(C2c3c(oc4ccccc4c3=O)C(=O)N2c2nncs2)cc1 (centres undefined),inactive: 26.9%
16,COc1ccccc1NC(=O)N[C@@H](Cc1c[nH]c2ccccc12)C(=O)NN,inactive: -8.16%
17,O=Cc1cc([N+](=O)[O-])ccc1N1CCOCC1,inactive: 4.79%
18,COc1ccc(-n2c3c(c(=O)[nH]c2=O)C(NS(=O)(=O)c2ccc(Cl)cc2)(C(F)(F)F)C(=O)N3)cc1 (centres undefined),inactive: 3.54%
19,CN(C)c1ccc(C2(O)C(=O)c3ccccc3C2=O)cc1,inactive: -0.719%
20,COCC(CN1CCN(C2=NS(=O)(=O)c3ccccc32)CC1)OC(=O)c1ccc(OC)cc1 (centres undefined),inactive: 3.47%
21,Cc1cc(C)n(/N=C/c2cc([N+](=O)[O-])ccc2O)c(=O)c1,inactive: -47.7%
22,CCN(CC)c1ccc(/C=N/NC(=O)Cc2cccs2)c(O)c1,inactive: -20.7%
23,C=CCN(c1ccc(C(=O)Nc2cc(C)cc(C)c2)cc1)S(C)(=O)=O,inactive: 12.5%
24,Cc1csc(SCC(=O)NC(C)c2ccccc2)n1 (centres undefined),inactive: 21.8%
25,CCOC(=O)C(CCCP(=O)(c1ccccc1)c1ccccc1)(NC(C)=O)C(=O)OCC,inactive: -8.66%
26,O=C(NCCN1CCOCC1)c1ccc(NC(=O)C2COc3ccccc3O2)cc1 (centres undefined),inactive: 14.3%
27,CCOC(=O)C1=C(C)NC(=S)NC1/C=C/c1ccccc1 (centres undefined),inactive: -2.84%
28,Cc1cc(C)n(C(C)CNS(=O)(=O)c2ccc(C)c(C)c2)n1 (centres undefined),inactive: -6.97%
29,O=C(Nc1ccc(N2CCN(C(=O)c3cccs3)CC2)cc1)c1cccnc1,inactive: -1.98%
